Measured values: the supplement of paper PMC3334620
Whole data set: some 33,000 sequences, median “E-score (-0.5 to 0.5)” near -0.056, cut for the highest 2% near 0.38. The list shows a part of the results.

The sequences below were run against Stb4 (UniProt P50104) (assay: PBM E-score (8-mer binding enrichment) (E-score (-0.5 to 0.5)); higher = stronger / more preferred TF binding; most listed sequences are background and not binding sites). Details: protein concentration: 200 nM; construct: GST-DNA-binding domain.
Protocol: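 Universal 'all 10-mer' protein binding microarrays (Agilent AMADID 015681) probed with GST-tagged S. cerevisiae TFs (full-length or DBD) made by in vitro transcription/translation (PURExpress), about 100-200 nM. Bound TF was detected with fluorescent anti-GST. Each ungapped 8-mer (which stands for itself and its reverse complement) is scored by the PBM enrichment score (E-score), a modified Wilcoxon-Mann-Whitney statistic from -0.5 to +0.5, computed with the Universal PBM Analysis Suite. Scale: above 0.35 generally sequence-specific binding.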

Sequence | PBM E-score
AAAAACCA | 0.142
GGAAATCC | 0.25
GACGACGA | -0.131
CATGTGAG | -0.203
GCGATAAC | 0.0985
TACAAATA | 0.135
AAAGACAT | -0.14
AGCCCGCT | -0.173
ATACGTCG | 0.0259
CGACCATA | 0.0767
GGTATTAA | 0.104
AGACTGAG | -0.107
CATTTGTA | -0.106
CGGACCAC | 0.24
AGGGGCAT | -0.228
AAAGTTAC | -0.0312
CGAACTAA | 0.00743
CGCCTGCA | -0.128
ACGGACTG | -0.121
TACCTAGA | -0.0508
AAACAAAA | -0.166
CCCGCAAA | 0.101
ACAAAAAA | 0.0733
AACTAGGG | -0.199
CTCGCCTA | 0.0116

Sequence | PBM E-score
CACTGTCA | -0.307
CAGGAAAA | -0.0586
CGCGAGAA | -0.0394
CCGTATGC | 0.176
AACCTAAG | -0.166
GTCCATGA | -0.226
GCGCGACC | -0.0286
CAGAAGGA | -0.278
AACAGATG | -0.195
TTCTTAAA | -0.138
CAGTTAAA | -0.145
AGCCCTCG | -0.0469
GTTTAGGA | -0.165
ATTGGCGA | -0.271
CTTGGATA | -0.00976
ACCAGTAG | -0.123
AAGGGTCT | -0.182
AATCACCT | -0.142
AGAGCGGA | 0.107
ATCTCATC | -0.153
AGCCTCAT | -0.0296
AAGGACTT | -0.0866
CATGGTTA | -0.00971
CGAACCCA | 0.139
AAACTCTC | 0.138

Sequence | PBM E-score
CTGTACGA | -0.154
AGTGTGAG | -0.0312
CGCCACCG | 0.063
CAAATCCA | -0.163
CCTGGGAA | -0.163
ACGGTCAA | 0.06
CCGATTCG | 0.376
ATAACCCG | 0.316
CATTACGA | -0.138
AACGATAA | 0.0432
AAAGGATC | -0.132
CGTCATCC | 0.125
CCTGATCA | -0.194
AGCAGAGC | 0.0158
AGGACGTC | -0.169
CCTCTAAA | -0.253
AGCATCTC | -0.136
ATAAAGGG | -0.0856
GCCTTGCA | -0.253
ACAATGCC | 0.0636
GCACAAAA | 0.0735
GTCCCTAA | -0.0432
CTCGCAAA | -0.159
GACTGTAC | -0.138
ACCCTCTC | -0.0835

Sequence | PBM E-score
CACCATCG | -0.123
AAACGGCA | 0.0407
ACTAGCGA | -0.142
ATACATCA | -0.148
GTCTTCAA | -0.289
CCTTCAGC | -0.252
CAGACATA | -0.0552
CCGCGGAG | 0.189
GATCACGA | -0.155
CGCGTAGC | 0.0258
CCCTACGG | 0.0881
GACACTAC | -0.0111
ATACTCGC | 0.153
CTAGAATA | -0.0583
GGGCTCAA | -0.0553
GGATCCAC | 0.0853
GATGCCGC | 0.0124
CAGAGGTA | -0.101
CTAACACC | -0.09
CGAGCTCG | 0.328
GGCGTAGA | -0.0918
AATTCGCA | 0.129
GATGTTCC | 0.301
ACAGCTCC | 0.0044
TACAATCA | -0.0408

Sequence | PBM E-score
AAATGTAG | -0.08
AAGAGATA | -0.148
ATTCGTAC | -0.0153
GAGCACTA | -0.0848
ATCGCAAA | -0.111
GCTAATCA | -0.0452
AAGATGGA | -0.00885
GCTGCCCA | -0.11
AGCGTTGG | -0.297
GCGCTGGA | 0.0327
TATTGCCA | -0.0494
ATTCGCTC | -0.119
CGAAGTCA | 0.0522
ATTGAGTG | -0.17
GATCAGGC | -0.0399
TCCAAGGA | 0.136
AGTCTAGA | -0.236
GATCGACA | -0.121
GTCGCAGA | -0.195
AATCTTGT | 0.0896
ACCCTCCC | 0.25
CCATTTGA | -0.137
CGTGCTAA | -0.0967
AACGAAGG | -0.273
CTTCAGTC | -0.24

Sequence | PBM E-score
TCTTCGCA | -0.0992
TACTCCAA | -0.308
ACGTCAAC | -0.151
AGCGCTTA | -0.107
ATGTGAAC | -0.116
ACGACAAC | -0.0889
TAAATTAA | 0.0737
CCTTGATA | -0.351
ATTGCACC | -0.0944
ATCTAGCA | -0.261
GGCGCTTA | 0.0331
ATATTAAT | 0.113
ATATCTGC | -0.222
ACGTCCCT | -0.32
ACGATAAA | 0.0306
GTTGACTA | -0.228
GCCTTGGA | -0.222
AACTCTCT | -0.17
ACATGTAA | -0.0569
AAAGTAGG | -0.0266
AGAGGCTG | -0.373
CTCAAACA | -0.026
TAGGCCCA | -0.271
ACTGCCCG | 0.123
AACGCTTC | -0.0915

Sequence | PBM E-score
AACCACCA | -0.102
ACCGCGGG | 0.302
CTAAAGAA | -0.136
AGCCGCAT | 0.0537
ATGAAAAG | -0.216
CTCTAGAC | -0.238
ACATACTA | 0.016
CACCATTA | 0.0648
ACTGCTTA | -0.209
ATATGACG | 0.108
CATCTCGG | 0.458
AGAGCCAG | -0.278
AAATCGTC | 0.0518
ACCACAGA | -0.193
AGCCCCGC | 0.0678
GATGCCCC | -0.106
AAGTGGCA | -0.186
TCGCAACA | -0.178
ATTGACCA | -0.186
GATTAGCA | -0.177
CTGCCTCA | -0.229
GTTAAACA | -0.0604
